Laboratory results published in the GPR68 mutational scans of Howard et al. (2025).

B1: GPR68, Q15743 (parent)
chain: MGNITADNSSMSCTIDHTIHQTLAPVVYVTVLVVGFPANCLSLYFGYLQIKARNELGVYLCNLTVADLFYICSLPFWLQYVLQHDNWSHGDLSCQVCGILLYENIYISVGFLCCISVDRYLAVAHPFRFHQFRTLKAAVGVSVVIWAKELLTSIYFLMHEEVIEDENQHRVCFEHYPIQAWQRAINYYRFLVGFLFPICLLLASYQGILRAVRRSHGTQKSRKDQIQRLVLSTVVIFLACFLPYHVLLLVRSVWEASCDFAKGVFNAYHFSLLLTSFNCVADPVLYCFVSETTHRDLARLRGACLAFLTCSRTGRAREAYPLGAPEASGKSGAQGEEPELLTKLHPAFQTPNSPGSGGFPTGRLA

Columns and labels:
[1] = variants of: B1; test: cAMP reporter score (Enrich2 score, wild type = 0); higher = more signal; HEK293T, FACS bins
[2] = variants of: B1; test: surface expression score (Enrich2 score, wild type = 0); higher = more signal; HEK293T, FACS bins

Row | Variant | cAMP reporter score ([1]; pH 5.5) | cAMP reporter score ([1]; pH 6) | cAMP reporter score ([1]; pH 6, modulator: ogerin) | cAMP reporter score ([1]; pH 6.5, modulator: ogerin) | surface expression score [2]
1 | N39del | -1.28 | -0.38 | -1.65 | -0.861 | -2.3
2 | L41_L43del | -1.52 | -0.469 | -1.91 | -1.1 | -2.24
3 | MGNITADNSSMSCTIDHTIHQTLAPVVYVTVLVVGFPANCLSCYFGYLQIKARNELGVYLCNLTVADLFYICSLPFWLQYVLQHDNWSHGDLSCQVCGILLYENIYISVGFLCCISVDRYLAVAHPFRFHQFRTLKAAVGVSVVIWAKELLTSIYFLMHEEVIEDENQHRVCFEHYPIQAWQRAINYYRFLVGFLFPICLLLASYQGILRAVRRSHGTQKSRKDQIQRLVLSTVVIFLACFLPYHVLLLVRSVWEASCDFAKGVFNAYHFSLLLTSFNCVADPVLYCFVSETTHRDLARLRGACLAFLTCSRTGRAREAYPLGAPEASGKSGAQGEEPELLTKLHPAFQTPNSPGSGGFPTGRLA [L43C] | 0.051 | -0.893 | 0.274 | -0.02 | -3.06
4 | MGNITADNSSMSCTIDHTIHQTLAPVVYVTVLVVGFPANCLSEYFGYLQIKARNELGVYLCNLTVADLFYICSLPFWLQYVLQHDNWSHGDLSCQVCGILLYENIYISVGFLCCISVDRYLAVAHPFRFHQFRTLKAAVGVSVVIWAKELLTSIYFLMHEEVIEDENQHRVCFEHYPIQAWQRAINYYRFLVGFLFPICLLLASYQGILRAVRRSHGTQKSRKDQIQRLVLSTVVIFLACFLPYHVLLLVRSVWEASCDFAKGVFNAYHFSLLLTSFNCVADPVLYCFVSETTHRDLARLRGACLAFLTCSRTGRAREAYPLGAPEASGKSGAQGEEPELLTKLHPAFQTPNSPGSGGFPTGRLA [L43E] | -1.6 | -0.052 | -1.2 | -0.993 | -2.44
5 | MGNITADNSSMSCTIDHTIHQTLAPVVYVTVLVVGFPANCLSDYFGYLQIKARNELGVYLCNLTVADLFYICSLPFWLQYVLQHDNWSHGDLSCQVCGILLYENIYISVGFLCCISVDRYLAVAHPFRFHQFRTLKAAVGVSVVIWAKELLTSIYFLMHEEVIEDENQHRVCFEHYPIQAWQRAINYYRFLVGFLFPICLLLASYQGILRAVRRSHGTQKSRKDQIQRLVLSTVVIFLACFLPYHVLLLVRSVWEASCDFAKGVFNAYHFSLLLTSFNCVADPVLYCFVSETTHRDLARLRGACLAFLTCSRTGRAREAYPLGAPEASGKSGAQGEEPELLTKLHPAFQTPNSPGSGGFPTGRLA [L43D] | -1.4 | -2.05 | -2.14 | -0.367 | -2.71
6 | MGNITADNSSMSCTIDHTIHQTLAPVVYVTVLVVGFPANCLSAYFGYLQIKARNELGVYLCNLTVADLFYICSLPFWLQYVLQHDNWSHGDLSCQVCGILLYENIYISVGFLCCISVDRYLAVAHPFRFHQFRTLKAAVGVSVVIWAKELLTSIYFLMHEEVIEDENQHRVCFEHYPIQAWQRAINYYRFLVGFLFPICLLLASYQGILRAVRRSHGTQKSRKDQIQRLVLSTVVIFLACFLPYHVLLLVRSVWEASCDFAKGVFNAYHFSLLLTSFNCVADPVLYCFVSETTHRDLARLRGACLAFLTCSRTGRAREAYPLGAPEASGKSGAQGEEPELLTKLHPAFQTPNSPGSGGFPTGRLA [L43A] | -0.045 | -0.31 | -0.248 | -1.25 | -1.88
7 | N39_C40insGS | -1.83 | -0.599 | -1.66 | -0.886 | 
8 | C40_L41insG | -1.44 | -0.793 | -1.42 | -0.932 | -2.42
9 | C40_L41del | -1.07 | -0.775 | -0.274 | -1.15 | -2.62

The least precise scores are not listed. Not listed are two conditions whose scores span a narrow range. Read del as a deletion of the residues named and ins as an insertion between two positions. For some assays here: How much ogerin was present is not stated here.
